Test results as given in a compilation of properties of binary mixtures (doi:10.1016/j.jtice.2024.105468).
Some of these densities may be calculated back from excess volumes.

Experiment: xn = mol fraction of the nth substance listed
Conditions: 100 kPa

COCCO + CCCC[n+]1ccn(C)c1.[Br-]
mass density (298.15 K, x2 = 0): 960.2 kg/m3
mass density (303.15 K, x2 = 0): 955.6 kg/m3
mass density (308.15 K, x2 = 0): 952.6 kg/m3
mass density (313.15 K, x2 = 0): 946.7 kg/m3

CCCC[n+]1ccn(C)c1.[Br-] + COCCO
mass density (298.15 K, x1 = 0.1002): 1028 kg/m3
mass density (298.15 K, x1 = 0.1999): 1082.3 kg/m3
mass density (298.15 K, x1 = 0.3002): 1126.7 kg/m3
mass density (298.15 K, x1 = 0.4): 1163.4 kg/m3
mass density (298.15 K, x1 = 0.5): 1194.2 kg/m3
mass density (298.15 K, x1 = 0.5999): 1220.1 kg/m3
mass density (298.15 K, x1 = 0.8): 1261.2 kg/m3
mass density (298.15 K, x1 = 0.8975): 1277.3 kg/m3
mass density (298.15 K, x1 = 1): 1292.3 kg/m3
mass density (303.15 K, x1 = 0.1002): 1023.7 kg/m3
mass density (303.15 K, x1 = 0.1999): 1078.2 kg/m3
mass density (303.15 K, x1 = 0.3002): 1122.6 kg/m3
mass density (303.15 K, x1 = 0.4): 1159.3 kg/m3
mass density (303.15 K, x1 = 0.5999): 1216 kg/m3
mass density (303.15 K, x1 = 0.7002): 1238.1 kg/m3
mass density (303.15 K, x1 = 0.8): 1257.2 kg/m3
mass density (303.15 K, x1 = 0.8975): 1273.3 kg/m3
mass density (303.15 K, x1 = 1): 1288.1 kg/m3
mass density (308.15 K, x1 = 0.1002): 1021.2 kg/m3
mass density (308.15 K, x1 = 0.1999): 1075.4 kg/m3
mass density (308.15 K, x1 = 0.3002): 1119.8 kg/m3
mass density (308.15 K, x1 = 0.5): 1187.2 kg/m3
mass density (308.15 K, x1 = 0.5999): 1213.1 kg/m3
mass density (308.15 K, x1 = 0.7002): 1235.1 kg/m3
mass density (308.15 K, x1 = 0.8): 1254.1 kg/m3
mass density (308.15 K, x1 = 0.8975): 1270.1 kg/m3
mass density (308.15 K, x1 = 1): 1284.7 kg/m3
mass density (313.15 K, x1 = 0.1002): 1015.9 kg/m3
mass density (313.15 K, x1 = 0.1999): 1070.3 kg/m3
mass density (313.15 K, x1 = 0.3002): 1114.9 kg/m3
mass density (313.15 K, x1 = 0.5999): 1208.9 kg/m3
mass density (313.15 K, x1 = 0.8): 1250.2 kg/m3
mass density (313.15 K, x1 = 0.8975): 1266.3 kg/m3
mass density (313.15 K, x1 = 1): 1280.9 kg/m3
